Laboratory results: the supplement of paper PMC3334620
Over roughly 33,000 sequences, “E-score (-0.5 to 0.5)” has its median near -0.032; the highest 2% begin near 0.36. The list shows a part of the results.

molecular target: T1, Sko1 (UniProt Q02100); test: PBM E-score (8-mer binding enrichment) (E-score (-0.5 to 0.5)); higher = stronger / more preferred TF binding; most listed sequences are background and not binding sites; conditions: protein concentration: 200 nM; construct: GST-full length
T1 sequence: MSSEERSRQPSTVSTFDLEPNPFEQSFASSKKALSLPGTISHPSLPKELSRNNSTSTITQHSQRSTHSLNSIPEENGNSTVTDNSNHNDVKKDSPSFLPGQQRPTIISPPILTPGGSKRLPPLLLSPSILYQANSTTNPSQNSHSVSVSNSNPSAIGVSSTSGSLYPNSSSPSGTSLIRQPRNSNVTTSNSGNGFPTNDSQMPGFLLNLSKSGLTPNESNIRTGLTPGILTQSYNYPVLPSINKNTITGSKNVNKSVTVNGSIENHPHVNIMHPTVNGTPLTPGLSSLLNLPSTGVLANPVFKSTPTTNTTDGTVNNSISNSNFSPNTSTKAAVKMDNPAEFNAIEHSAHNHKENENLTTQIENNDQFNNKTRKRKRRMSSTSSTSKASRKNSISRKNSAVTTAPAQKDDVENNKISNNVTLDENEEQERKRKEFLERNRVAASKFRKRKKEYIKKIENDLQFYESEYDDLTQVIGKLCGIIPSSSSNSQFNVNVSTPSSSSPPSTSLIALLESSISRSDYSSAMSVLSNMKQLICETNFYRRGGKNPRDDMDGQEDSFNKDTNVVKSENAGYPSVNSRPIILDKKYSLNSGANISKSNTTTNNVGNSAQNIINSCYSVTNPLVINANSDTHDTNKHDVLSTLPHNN
How it was run: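 The E-score, a modified Wilcoxon-Mann-Whitney statistic, was computed by the Universal PBM Analysis Suite for every ungapped eight-base word pooled with its reverse complement. Scans behind it were normalised with masliner after bound GST-tagged yeast transcription factors were detected with fluorescent anti-GST. The proteins, at about 100-200 nM, had been applied to universal all-10-mer Agilent arrays made double-stranded by primer extension.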

Row | Sequence | PBM E-score
1 | AATGTACT | 0.0407
2 | TGACGGCA | 0.275
3 | CAACAGAC | 0.0225
4 | CACTGGTA | 0.0571
5 | CCATCGTC | -0.0226
6 | ATCACTAG | 0.0764
7 | GGTACACC | -0.18
8 | AATAGAAT | 0.104
9 | GAGTCCAA | -0.167
10 | GTACGCAC | 0.303
11 | ACCGGTCA | -0.154
12 | ATCGCCCG | -0.179
13 | CCAGAACG | -0.00441
14 | AGCAGGCT | -0.301
15 | CTGACTTA | 0.0668
16 | ACTTCTCT | -0.0928
17 | AATTGCCC | -0.0343
18 | CTTACATC | 0.202
19 | GAGACGGA | -0.0605
20 | TACCGTGA | -0.139
21 | ATAGAGCG | -0.23
22 | CTTGAGTC | -0.175
23 | ATGGTGCA | 0.0432
24 | ACTGTCAA | -0.0414
25 | GACGGTAC | 0.171

Row | Sequence | PBM E-score
26 | ATCACATA | 0.3
27 | CACCATGA | 0.102
28 | CAGATCTA | -0.00832
29 | CGCCCCTC | -0.312
30 | CACGGGTC | -0.136
31 | GGATTCCA | 0.0845
32 | GATGAGCC | -0.167
33 | GGCTTCCA | -0.218
34 | ATGATAAC | 0.263
35 | AGGTATGA | 0.0251
36 | ATGCAACG | 0.153
37 | ACAACGTC | 0.368
38 | CGCGAACA | -0.0312
39 | ATGACCGC | -0.0945
40 | CTTTCCGA | -0.203
41 | ACTGATCA | 0.108
42 | AATTGCTC | -0.193
43 | GCCCGAAA | 0.0303
44 | ATAGATTA | 0.278
45 | CCGCTTTA | 0.0682
46 | AGACGCTG | -0.213
47 | GGGTGTTA | -0.0119
48 | CATCGCAG | -0.143
49 | GCCGTCCA | -0.16
50 | CCCTAGCG | -0.396

Row | Sequence | PBM E-score
51 | GACGGAGC | -0.322
52 | ACAATCAA | 0.0869
53 | AACGACAA | 0.165
54 | AAATGATG | 0.373
55 | AGATTATC | -0.0109
56 | CACATTCG | 0.088
57 | AGTCCACG | 0.0506
58 | ATTACCGA | 0.0448
59 | ATCGGTGA | 0.12
60 | AGCGAAGG | -0.122
61 | CCGTTATC | -0.00855
62 | CTCCCTAA | -0.121
63 | AATGCTCA | 0.209
64 | CAAGTAGG | -0.148
65 | GACCTCTA | -0.154
66 | AAACACGC | 0.316
67 | ACGTCGCG | 0.356
68 | GTCATAAA | 0.364
69 | GACGATCA | 0.026
70 | AACATCGC | -0.0887
71 | GCTTTGGA | 0.0123
72 | CAACTCCA | -0.0701
73 | AATTGGAT | 0.0845
74 | ATTAAAAT | 0.217
75 | CTTATTCA | 0.0262

Row | Sequence | PBM E-score
76 | TAATAAGA | 0.178
77 | CGGGACTC | -0.189
78 | ATCCCTGG | -0.227
79 | CGTCGAGA | 0.192
80 | AATAACTA | 0.186
81 | GACGTGGC | 0.189
82 | CGGAGTAA | -0.0566
83 | AGAAATAT | 0.114
84 | AAAACATT | 0.0995
85 | CCATTAAG | -0.0741
86 | GCAATGAC | 0.374
87 | TCCCACAA | -0.16
88 | CGGTAGTC | -0.274
89 | GAAGTCTA | -0.142
90 | ACCAGGCG | -0.16
91 | ATGCAAGA | 0.0657
92 | AGGATAAT | 0.0588
93 | AACATCTT | 0.118
94 | AGCATCGA | -0.136
95 | TGTGCGAA | -0.0341
96 | CTGCCCGC | -0.0733
97 | GCACGGGA | -0.156
98 | GACCTTTA | -0.0128
99 | GAAGCGTA | 0.0736
100 | CGGTTATA | -0.0341

Row | Sequence | PBM E-score
101 | AATCTATC | 0.0137
102 | AACTGGAT | -0.046
103 | ACTGAGGC | -0.00682
104 | AATACTCC | -0.233
105 | CAGTGCCC | -0.118
106 | CTTATCCC | -0.0649
107 | CGTCGGGC | -0.216
108 | GAACTAAC | 0.00301
109 | GCCTCTAA | -0.172
110 | CGATAACC | -0.0651
111 | CCTTTCCA | -0.152
112 | ATCCATCA | -0.0535
113 | GGTCAGAC | -0.241
114 | ATTTTGTC | 0.208
115 | GGCGAGAC | -0.00381
116 | CAGTCGAA | -0.0717
117 | AAGTTATT | 0.15
118 | ACGCTAAA | 0.0769
119 | ACCTTCAT | -0.00414
120 | GGCCATCA | -0.165
121 | GATCTGAA | -0.139
122 | CCTAGGAA | -0.0919
123 | ATAAAGTG | 0.11
124 | CCTTTACG | 0.278
125 | AATGGAAT | 0.137

Row | Sequence | PBM E-score
126 | CTGAAGCC | -0.255
127 | GATGTCTA | 0.109
128 | CAGTACGC | 0.194
129 | CTGACTCA | -0.0405
130 | ATAGTTTC | -0.0745
131 | CAATGTGG | 0.0109
132 | ACTAGATA | 0.215
133 | CAGATGAC | 0.37
134 | AACGGCAT | 0.048
135 | ACAACAGT | -0.0679
136 | ACTCAAAC | 0.0881
137 | CTCAGCGC | -0.103
138 | GACTTACC | -0.217
139 | GGGGGGTA | -0.178
140 | AACAATTG | 0.0266
141 | GGCCCCCA | -0.32
142 | CTACTAGC | -0.00047
143 | ACGACCCC | -0.193
144 | GATGCTGA | -0.186
145 | GACGCTAC | 0.181
146 | ACGGAAAG | -0.0231
147 | ACTAACCT | -0.0409
148 | CTTACCAA | 0.0713
149 | CTATACCC | -0.219
150 | TGTCACAA | 0.133

Row | Sequence | PBM E-score
151 | CCAACACG | 0.281
152 | GCCTGTCC | -0.297
153 | CGGACGAG | -0.152
154 | AATGAATA | 0.0911
155 | GTACCGCA | 0.116
156 | TCTTCACA | 0.126
157 | CGCACAAC | 0.0655
158 | ATCTCCGA | -0.0214
159 | CACCTAGC | -0.173
160 | GTGATATA | 0.0787
161 | ACTGAGTC | -0.129
162 | ATGAAGCC | -0.164
163 | AGGAATTG | 0.0885
164 | GGCCGCGA | -0.122
165 | CCGAGTAG | -0.225
166 | ATCCCGGG | -0.241
167 | CAGCTGAA | -0.0103
168 | AGTACCCA | -0.0715
169 | TCCTTAAA | 0.0765
170 | CTGCTCCC | -0.166
171 | AAAAGCTA | 0.141
172 | ATAAAGTA | 0.149
